The campaign covered roughly 310,000 compounds. About 14,000 (4.5%) showed an effect of 50% or more. Effects have a minus sign here. The list shows a part of the results.
These compounds were tested against human ether-à-go-go-related gene (hERG) potassium channel (human, UniProt Q12809) (assay: primary screen, population patch clamp on CHO cells stably expressing hERG).
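Further: peak tail current of the secondary pulse compared with the same well before compound.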

human ether-à-go-go-related gene (hERG) potassium channel, sequence (Q12809 whole entry, looked up): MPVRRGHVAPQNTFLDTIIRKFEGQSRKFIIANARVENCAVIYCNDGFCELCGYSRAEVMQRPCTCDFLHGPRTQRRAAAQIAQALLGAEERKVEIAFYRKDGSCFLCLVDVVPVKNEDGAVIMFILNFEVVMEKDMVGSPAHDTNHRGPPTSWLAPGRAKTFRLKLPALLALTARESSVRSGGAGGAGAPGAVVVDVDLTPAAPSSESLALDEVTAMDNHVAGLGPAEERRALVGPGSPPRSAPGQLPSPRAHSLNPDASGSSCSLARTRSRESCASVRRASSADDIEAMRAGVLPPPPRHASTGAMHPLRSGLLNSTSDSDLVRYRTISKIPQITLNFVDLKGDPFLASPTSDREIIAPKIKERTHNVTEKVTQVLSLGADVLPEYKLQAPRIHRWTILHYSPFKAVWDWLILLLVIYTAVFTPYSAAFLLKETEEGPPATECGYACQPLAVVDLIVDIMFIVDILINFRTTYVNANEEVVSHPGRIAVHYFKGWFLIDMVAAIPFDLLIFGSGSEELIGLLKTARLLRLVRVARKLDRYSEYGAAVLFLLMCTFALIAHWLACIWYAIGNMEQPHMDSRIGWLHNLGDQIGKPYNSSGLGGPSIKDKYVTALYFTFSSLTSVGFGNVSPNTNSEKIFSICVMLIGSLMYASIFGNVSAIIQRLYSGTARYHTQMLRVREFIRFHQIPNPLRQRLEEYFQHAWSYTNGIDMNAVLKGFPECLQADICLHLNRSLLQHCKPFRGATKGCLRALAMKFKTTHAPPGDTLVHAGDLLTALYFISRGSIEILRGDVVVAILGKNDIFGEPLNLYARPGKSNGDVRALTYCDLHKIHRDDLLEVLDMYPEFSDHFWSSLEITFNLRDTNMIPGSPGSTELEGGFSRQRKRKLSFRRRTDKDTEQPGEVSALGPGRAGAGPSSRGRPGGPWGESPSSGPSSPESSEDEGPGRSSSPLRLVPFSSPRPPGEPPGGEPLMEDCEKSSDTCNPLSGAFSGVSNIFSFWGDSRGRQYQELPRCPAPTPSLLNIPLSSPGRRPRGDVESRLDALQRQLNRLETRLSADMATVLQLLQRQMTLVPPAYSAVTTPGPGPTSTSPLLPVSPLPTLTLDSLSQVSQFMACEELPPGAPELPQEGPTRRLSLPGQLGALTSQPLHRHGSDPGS

| Structure (SMILES) | hERG current change (%, negative = inhibition) at 10uM |
| --- | --- |
| CCOC(=O)/C(C#N)=C1/C=CN(C)C(C)=N1 | 8.75% |
| COc1ccc(CN2C(=O)NC(=O)/C(=C/c3cc(OC)c(OC)c(OC)c3)C2=O)cc1 | 13.1% |
| CCCOc1ccc(N)cc1N.Cl | 7.66% |
| COc1ccc(NC(=O)CS(=O)(=O)c2cn(CC(=O)N3CCCC3)c3ccccc23)c(OC)c1 | 2.47% |
| Cc1ccc(NC(=S)N2CCCC(c3nc4ccc(C)cc4[nH]3)C2)c(C)c1 (stereo not shown) | 1.56% |
| CCn1cc(CNC(=O)CCc2nnc(CCC3CCCCC3)o2)cn1 | 11.8% |
| Cc1nc2ccc([N+](=O)[O-])cc2c(=O)n1Cc1ccc(F)cc1 | -26.2% |
| CSc1ccc(C(=O)C2CCCN(C(=O)c3cc4cc(F)ccc4[nH]3)C2)cc1 (stereo not shown) | 1.84% |
| COc1ccc2c(OC)cc(-c3ccccc3)nc2c1 | -19.5% |
| COc1nc(Nc2cccc(C(F)(F)F)c2)nc(OC)n1 | 2.66% |
| COc1ccc([N+](=O)[O-])cc1N(CC(=O)N1CCCC1)S(C)(=O)=O | 16.8% |
| CC(=O)Nc1ccc(/C=N/N2C(C)CCCC2C)cc1 (stereo not shown) | 17.2% |
| Cc1c(C)n(C(=O)CN2CCN(c3ccccc3)CC2)c2ccccc12 | -6.16% |
| CCOC(=O)C1CCCN(C2CC(=O)N(c3ccc(C)cc3)C2=O)C1 (stereo not shown) | 6.8% |
| O=C(O)CCC(=O)N1CCc2cc(S(=O)(=O)N3CC=C(c4ccccc4)CC3)ccc21 | 16.3% |
| CCc1ccc(NC(=O)CN2C(=O)CSC2=O)cc1 | -1.44% |
| COc1ccc(N2C(=O)CC(SCc3ccc(Cl)cc3)C2=O)cc1 (stereo not shown) | 5.13% |
| Cc1cccc(NC(=O)COC(=O)Cc2c[nH]c3ccccc23)c1C | 6.46% |
| Nn1c(SCc2cccc(Cl)c2)nnc1-c1ccncc1 | -2.64% |
| CCOC(=O)c1sc(Nc2ccc(C)cc2C)nc1C | 7.62% |

| Structure (SMILES) | hERG current change (%, negative = inhibition) at 10uM |
| --- | --- |
| Cc1ccc(NC(=O)c2ccco2)cc1NC(=O)CSc1nnc(-c2cccs2)n1C | -38% |
| COc1ccc(C(C)C)cc1S(=O)(=O)NCc1ccccn1 | -3.11% |
| Cn1c(O)c(C(c2ccncc2)c2c(O)n(C)c(=S)n(C)c2=O)c(=O)n(C)c1=S | 21.2% |
| Cc1[nH]c(=O)cc2ccccc12 | 17.8% |
| O=C(COC(=O)c1ccco1)Nc1cccc(Br)c1 | 5.51% |
| COc1cc2[nH]c(=S)n(CCN3CCCCC3C)c(=O)c2cc1OC (stereo not shown) | -9.24% |
| COc1ccc(NC(=O)C(c2cc3c(cc2[N+](=O)[O-])OCO3)N(C)Cc2ccccc2)cc1 (stereo not shown) | 2.02% |
| CC(C(=O)Nc1cccnc1)N1C(=O)c2ccccc2C1=O (stereo not shown) | 14.5% |
| CCOC(=O)N1CCN(C(=O)CSc2ccc(-c3ccccc3OC)nn2)CC1 | 1.58% |
| Cc1nc(C)n(CC(=O)N2CCCC(C(=O)c3ccc(Cl)cc3C)C2)n1 (stereo not shown) | -0.162% |
| Cc1nnc(SCC(=O)N(Cc2ccccc2)C(C)C)n1-c1ccccc1 | -5.28% |
| Cc1ccc(-c2csc(NC(=O)CSc3nc(C)cs3)n2)cc1 | -7.66% |
| Fc1ccc(CN2CCN(c3ncnc4scc(-c5ccc(F)cc5)c34)CC2)cc1 | 5.9% |
| COc1cc(C(=S)N2CCOCC2)cc(Br)c1OS(=O)(=O)c1ccccc1 | 14.5% |
| CCCn1c(SCC(=O)NC2CCCc3ccccc32)n[nH]c1=O (stereo not shown) | 56% |
| COc1ccccc1CN1CCN(Cc2nc(-c3ccc(C)cc3)oc2C)CC1 | -58.8% |
| Cc1c(C(=O)OCC(=O)Nc2cccc(S(N)(=O)=O)c2)oc2c1ccc1ccccc12 | 1.32% |
| CCOC(=O)C1CN(S(C)(=O)=O)c2cc(CC(=O)OC)ccc2O1 (stereo not shown) | 1.78% |
| CC(=O)Nc1ccc(NS(=O)(=O)c2cc(Cl)sc2Cl)cc1 | 2.61% |
| COc1cccc(Cl)c1NC(=O)N1CCc2c([nH]c3ccccc23)C1C(F)(F)F (stereo not shown) | 9.87% |

| Structure (SMILES) | hERG current change (%, negative = inhibition) at 10uM |
| --- | --- |
| COc1ccc(C2CC(=O)N(CC(=O)NCC3CCCO3)c3ccccc3S2)cc1 (stereo not shown) | -27.1% |
| CCOc1ccc(-n2nc3c(=S)[nH]nc(C)c3c2C)cc1 | 2.04% |
| CC1Oc2ccccc2C=C1/C=N/NC(=O)c1ccccc1 (stereo not shown) | 8.52% |
| O=C(O)c1ccc2c(=O)n(-c3ccc(F)cc3)c(=S)[nH]c2c1 | 7.01% |
| CNC(=S)N(Cc1ccco1)Cc1cc2cc3c(cc2[nH]c1=O)OCCO3 | -18.9% |
| COc1ccc(C2=NS(=O)(=O)N(C)C(C(=O)NCc3ccccn3)=C2)cc1OC | -4.15% |
| Cc1ccc2nc(-c3ccc(NC(=O)COC(=O)c4ccc(Br)o4)cc3)sc2c1 | -1.1% |
| CCN=C1SC(CC(N)=O)C(=O)N1CC (stereo not shown) | 24.7% |
| COc1cc(C2NC(=O)NC3=C2C(=O)OC3)cc(OC)c1OC (stereo not shown) | 22.8% |
| CC1CCN(C(=O)c2ccc(S(=O)(=O)N(C)C)cc2)C(C)C1 (stereo not shown) | 3.66% |
| CCN(CCO)Cc1csc2ccccc12.Cl | -5.64% |
| NC(=O)c1ccsc1NC(=O)CSc1ccccc1F | -14.8% |
| Cc1n[nH]c(C)c1S(=O)(=O)N1CCCC(C(=O)Nc2ccc3c(c2)OCCO3)C1 (stereo not shown) | 6% |
| CCOC(=O)CN1CC23C=CC(O2)C(C(=O)Nc2ccc(F)cc2)C3C1=O (stereo not shown) | -0.929% |
| O=C(Nc1nc(-c2ccc(Cl)cc2Cl)cs1)C1CCCO1 (stereo not shown) | 2.44% |
| O=C(NCCSc1c[nH]c2ccccc12)C1CC1 | -4.85% |
| COc1ccc(CN(C)CC(=O)NC2CCCc3ccccc32)cc1OC (stereo not shown) | -36% |
| O=C(Nc1ccc(Cl)cn1)c1ccc(Br)c(S(=O)(=O)N2CCCCC2)c1 | 18.7% |

From PMC4336329 (PLoS ONE, 2015)
